# Experimental data: PubChem BioAssay AID445 (National Center for Advancing Translational Sciences (NCATS), 2006)
# Screen size: about 110,000 compounds; about 40 (0.04%) were called active. The shares of active, inactive and inconclusive entries below differ from those in the screen. Calls come from the whole dose curve; as a rule, active = well fitted curve in the direction sought with a large enough effect in the signal ratio (not every such curve was filed as active); inconclusive = small, poorly fitted or top-dose-only effect, or a change in a side signal; inactive = flat fitted curve, though single readings scatter; the % refers to the signal ratio. A potency beside an inconclusive call is a rough fit, not a confirmed value.
# Assay: IkB Signaling;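 for IkBa stabilization activation: 0% = basal untreated cells and 100% = reference inhibitor full response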
# Conditions: ABC-DLBCL IkBa-CBG/CBR dual luciferase ratio (green luciferase fused to IkBa over red control in OCI-Ly3 lymphoma cells), 4 h; IkBa stabilization activation: at 57.1 µM (top of the series), scaled: untreated 0%, proteasome inhibitor 100% unless noted
# How it was run: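 Curves were fitted separately to fusion (green), unfused (red) and ratio luminescence, then classed by r2, magnitude and activity. Cells: OCI-Ly3, 4 h compound plus doxycycline at 37C; 10 uM MG-132 defined full response.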
# Potency is the fitted concentration of half-maximal effect.
Compound,IkBa stabilization activation,Potency
NCC[C@H]1CCC[C@H](CCN)N1,inactive,–
COc1cc(CCC(=O)OCc2nnc(-c3ccccc3)o2)cc(OC)c1OC,inconclusive: 4.76% [signal inhibitor],–
COc1ccccc1CNC(=O)CCc1c(C)nc2c(c(C)nn2-c2ccc(C)c(C)c2)c1C,inconclusive: 3.02% [signal inhibitor],–
CC(C)(C)OC(=O)N1CCC(c2c(C(=O)NCc3ccccc3)cnn2-c2ccccc2)CC1,inconclusive: 3.58% [signal inhibitor],–
CCCCn1c(=N)c(S(=O)(=O)c2ccc(Cl)cc2)cc2c(=O)n3cccc(C)c3nc21,inactive,–
Cc1cccc(Nc2c(-c3cccs3)nc3nc(C)cc(C)n23)c1,inconclusive: 7.32% [signal inhibitor],–
CCc1ccc(CNC(=O)c2cc3c(=O)n(CC)c4ccccc4c3s2)cc1,inconclusive: 2.36% [signal inhibitor],–
NCCC[C@@H](CC(=O)N[C@@H]1CCNC[C@H]1C(=O)N[C@H](CC(=O)N[C@@H](CCC(=O)O)CC(=O)O)Cc1ccccc1)NC(=O)C[C@H](CO)NC(=O)[C@@H]1CCCC[C@H]1N,inactive,–
CCN1CCC[C@H]1CNC(=O)c1c(O)c(Cl)cc(Cl)c1OC,inactive,–
Cc1ccc(CNC(=O)c2cnc(N3CCCCC3)c3ccccc23)cc1,inconclusive: 1.82% [signal inhibitor],–
O=C(c1ccc2c(c1)CCN2S(=O)(=O)c1ccccc1)N1CCN(c2cccc(Cl)c2)CC1,inconclusive: 2.36% [signal inhibitor],–
COc1ccc(CCNC(=O)c2cc3sc(Cl)cc3n2C)cc1OC,inconclusive: 2.98% [signal inhibitor],–
COC(=O)c1cccc(Nc2c(-c3ccc(OC)cc3)nc3nc[nH]n23)c1,inconclusive: 2.71% [signal activator],–
CCN1CCN(CCCNc2ncnc3nc[nH]c23)CC1,inactive,–
O=S1(=O)C=C(Sc2nc3ccccc3s2)c2ccccc21,–,"inconclusive: 794 nM [signal inhibitor, partial curve]"
CCOC(=O)c1ccc(NC(=O)C(CC)Sc2nnc3c4ccccc4n(C)c3n2)cc1 (centres undefined),inconclusive: 2.65% [signal inhibitor],–
Cc1cc(C)c(NC(=O)Cn2c(=O)n(Cc3ccc4c(c3)OCO4)c(=O)c3ccccc32)c(C)c1,inactive,–
COc1ccc(S(=O)(=O)N2CCC(n3cnc4cc(C(F)(F)F)ccc43)CC2)cc1,inconclusive: 6% [signal inhibitor],–
Nc1c(C(=O)NCCN2CCOCC2)c2nc3ccccc3nc2n1-c1ccc2c(c1)OCO2,inactive,–
